# Data published in the supplement of paper PMC5919970.
# Structures can show the parent of a compound that is named as a salt. The full ranking holds about 2,000 compounds; the median of “fractional viability relative to vehicle” is about 0.92, and the lowest 2% start at about 0.11. This is one part of the list.
# Tested on: TYKNU
# Assay: fractional viability relative to vehicle; TYKNU is a high-grade serous ovarian cancer line; higher = less growth inhibition
# Settings: 72 h, genotype: OPA1 knockout (sgOPA1 #2)
# Procedure, shortened: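 TYKNU control cells or lentiCRISPRv2 knockout derivatives were seeded at 500 cells per well into drug-stamped 384-well plates holding a ~2100-compound library at 2 or 10 μM, in duplicate. Cells were grown at 37 °C in 5% CO2 in RPMI 1640 with 10% FBS, and drug treatment lasted 72 h. Viability was read by Cell Titer Glo luminescence. Duplicate treatment wells were averaged and normalised to duplicate control wells from the same plate position.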
SMILES,fractional viability (2uM),fractional viability (10uM)
C[N+](C)(C)CCO.[Cl-] [Choline Chloride],0.937,0.834
Clc1ccc(Nc2nnc(Cc3ccncc3)c3ccccc23)cc1 [Vatalanib (PTK787) 2HCl],1.16,0.881
Cn1cc(-c2ccc3nnc(Sc4ccc5ncccc5c4)n3n2)cn1,1.11,0.982
Cc1cc(O)c2c(c1)C(=O)c1cc(O)cc(O)c1C2=O [Emodin],0.898,0.917
O=C1NC(=O)/C(=C/c2cccc(C(F)(F)F)c2)S1,0.918,0.615
CC(C)CN(C[C@@H](O)[C@H](Cc1ccccc1)NC(=O)O[C@H]1CO[C@H]2OCC[C@H]21)S(=O)(=O)c1ccc(N)cc1 [Darunavir Ethanolate],1.26,0.962
Cc1cc2c(F)c(Oc3ncnn4cc(OC[C@@H](C)O)c(C)c34)ccc2[nH]1,1.03,0.73
O=C(O)CSCC(=O)NC1CCSC1=O (configuration not stated) [Erdosteine],0.933,0.942
COc1cc(/C=C/C(=O)CC(=O)/C=C/c2ccc(O)c(OC)c2)ccc1O [Curcumin],0.989,0.813
Cc1c[nH]c(/C=C2\C(=O)Nc3ccccc32)c1CCC(=O)O,0.793,0.846
Cc1ccccc1N=Nc1ccc(NC(=O)c2ccnn2C)c(C)c1,0.902,0.923
Cn1cc(-c2ccc(S(=O)(=O)n3ccc(/C=C/C(=O)Nc4ccccc4N)c3)cc2)cn1,0.351,0.193
CCc1oc2ccccc2c1C(=O)c1cc(Br)c(O)c(Br)c1 [Benzbromarone],0.978,0.938
CC/C(=C(\c1ccccc1)c1ccc(OCCN(C)C)cc1)c1ccccc1 [Tamoxifen Citrate],1.4,0.815
C=C(c1ccc(C(=O)O)cc1)c1cc2c(cc1C)C(C)(C)CCC2(C)C [Bexarotene],1.1,0.876
CN(C)CCCCC(=O)Nc1ccc(NC(=S)NC(=O)c2ccc(C(C)(C)C)cc2)cc1 [Tenovin-6],0.783,0.155
CC[N+](CC)(CC)CCOc1cccc(OCC[N+](CC)(CC)CC)c1OCC[N+](CC)(CC)CC [Gallamine Triethiodide],1.08,0.833
CN1CCC[C@@H]1CCO[C@](C)(c1ccccc1)c1ccc(Cl)cc1 [Clemastine Fumarate],1.04,0.931
CCOc1ccc(NC(C)=O)cc1 [Phenacetin],0.999,0.827
O=C(c1ccc(OCCCc2c[nH]cn2)cc1)C1CC1 [Ciproxifan],1.1,0.986
CC(C)[C@H](N)C(=O)OCC(CO)OCn1cnc2c(=O)[nH]c(N)nc21 (some centres not stated) [Valganciclovir HCl],0.846,0.832
